# These are yes or no findings as the source states them, for the method shown. Some entries that bind do so weakly or less than the wild type. Where a sequence is shown, tags or fusion partners need not be part of it.
# T1: TPR4 (yeast two-hybrid fusion) (Arabidopsis thaliana) (UniProt Q27GK7)
# T1 sequence: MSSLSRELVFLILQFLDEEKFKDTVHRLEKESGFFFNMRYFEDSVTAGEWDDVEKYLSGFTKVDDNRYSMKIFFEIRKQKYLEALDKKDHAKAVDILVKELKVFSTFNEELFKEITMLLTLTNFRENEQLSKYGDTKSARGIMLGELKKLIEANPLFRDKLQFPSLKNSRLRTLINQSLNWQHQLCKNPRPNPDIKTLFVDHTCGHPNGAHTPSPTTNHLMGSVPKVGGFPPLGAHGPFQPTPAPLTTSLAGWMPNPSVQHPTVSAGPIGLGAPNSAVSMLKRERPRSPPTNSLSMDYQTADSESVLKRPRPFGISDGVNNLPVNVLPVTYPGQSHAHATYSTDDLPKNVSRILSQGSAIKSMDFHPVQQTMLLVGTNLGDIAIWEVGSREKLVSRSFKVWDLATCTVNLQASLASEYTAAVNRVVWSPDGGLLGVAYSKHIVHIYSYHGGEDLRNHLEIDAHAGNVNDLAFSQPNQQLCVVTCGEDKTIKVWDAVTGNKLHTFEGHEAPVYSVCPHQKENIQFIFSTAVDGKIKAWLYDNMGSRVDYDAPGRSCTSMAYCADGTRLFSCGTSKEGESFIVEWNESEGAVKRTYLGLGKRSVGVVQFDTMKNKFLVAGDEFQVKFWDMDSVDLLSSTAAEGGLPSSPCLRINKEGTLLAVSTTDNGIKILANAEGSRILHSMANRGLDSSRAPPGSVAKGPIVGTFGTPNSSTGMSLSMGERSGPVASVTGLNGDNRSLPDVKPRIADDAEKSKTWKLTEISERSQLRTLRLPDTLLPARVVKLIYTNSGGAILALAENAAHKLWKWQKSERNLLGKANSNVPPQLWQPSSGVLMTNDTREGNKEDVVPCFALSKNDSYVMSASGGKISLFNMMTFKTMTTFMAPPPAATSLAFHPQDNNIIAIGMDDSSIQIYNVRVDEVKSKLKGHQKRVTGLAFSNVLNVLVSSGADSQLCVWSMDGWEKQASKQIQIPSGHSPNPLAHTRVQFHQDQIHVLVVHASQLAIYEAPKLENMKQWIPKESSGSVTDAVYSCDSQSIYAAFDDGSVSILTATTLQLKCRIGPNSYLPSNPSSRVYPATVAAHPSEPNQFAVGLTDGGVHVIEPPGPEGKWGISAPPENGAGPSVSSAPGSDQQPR
# T2: TPR3 (yeast two-hybrid fusion) (Arabidopsis thaliana) (UniProt Q84JM4)
# T2 sequence: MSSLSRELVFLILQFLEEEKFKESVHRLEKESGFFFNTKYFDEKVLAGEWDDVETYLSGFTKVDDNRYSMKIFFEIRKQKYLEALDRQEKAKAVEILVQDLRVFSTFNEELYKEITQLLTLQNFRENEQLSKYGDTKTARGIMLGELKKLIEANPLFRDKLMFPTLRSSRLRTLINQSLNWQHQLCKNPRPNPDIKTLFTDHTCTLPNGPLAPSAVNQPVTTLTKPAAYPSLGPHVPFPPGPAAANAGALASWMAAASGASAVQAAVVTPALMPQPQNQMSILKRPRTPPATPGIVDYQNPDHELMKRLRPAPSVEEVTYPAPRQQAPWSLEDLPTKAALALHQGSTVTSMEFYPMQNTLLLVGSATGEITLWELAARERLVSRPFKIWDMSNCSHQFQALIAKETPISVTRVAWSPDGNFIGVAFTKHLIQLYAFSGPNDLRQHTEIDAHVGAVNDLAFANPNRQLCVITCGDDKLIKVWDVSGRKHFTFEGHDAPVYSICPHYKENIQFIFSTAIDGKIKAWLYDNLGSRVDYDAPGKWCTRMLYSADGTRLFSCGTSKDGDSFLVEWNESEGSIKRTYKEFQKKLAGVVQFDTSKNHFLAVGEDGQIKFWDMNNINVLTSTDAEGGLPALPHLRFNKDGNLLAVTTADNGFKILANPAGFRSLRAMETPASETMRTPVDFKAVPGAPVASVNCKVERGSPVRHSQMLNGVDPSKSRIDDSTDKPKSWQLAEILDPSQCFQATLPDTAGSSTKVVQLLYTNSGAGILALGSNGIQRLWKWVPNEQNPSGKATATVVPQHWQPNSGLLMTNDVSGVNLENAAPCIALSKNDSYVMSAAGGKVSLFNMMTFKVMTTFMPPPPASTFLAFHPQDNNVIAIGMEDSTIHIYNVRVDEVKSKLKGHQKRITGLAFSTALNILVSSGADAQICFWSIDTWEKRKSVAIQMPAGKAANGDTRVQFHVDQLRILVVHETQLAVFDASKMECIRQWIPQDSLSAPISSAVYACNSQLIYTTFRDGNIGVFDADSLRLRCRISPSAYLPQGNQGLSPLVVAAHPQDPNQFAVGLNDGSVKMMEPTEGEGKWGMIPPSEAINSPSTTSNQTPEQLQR
# T3: MYB75 (pGBKT7 fusion, yeast two-hybrid) (Arabidopsis thaliana) (UniProt Q9FE25)
# T3 sequence: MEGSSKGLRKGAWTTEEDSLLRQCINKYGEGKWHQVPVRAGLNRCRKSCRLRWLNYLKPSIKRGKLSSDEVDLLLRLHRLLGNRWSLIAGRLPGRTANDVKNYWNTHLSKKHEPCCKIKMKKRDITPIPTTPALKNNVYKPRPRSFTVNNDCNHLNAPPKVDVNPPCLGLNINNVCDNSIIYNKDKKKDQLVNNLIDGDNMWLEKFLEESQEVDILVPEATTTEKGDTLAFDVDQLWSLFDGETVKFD
# How the values were obtained:
# Assay in all cases: two-hybrid; directed assay; yeast AH109 with pairs of pGADT7 and pGBKT7 plasmids; growth on SD-Leu/-Trp/-Ade/-His
# [1] = biological target: T1, TPR4 (yeast two-hybrid fusion) (Arabidopsis thaliana)
# [2] = biological target: T2, TPR3 (yeast two-hybrid fusion) (Arabidopsis thaliana)
# [3] = biological target: T3, MYB75 (pGBKT7 fusion, yeast two-hybrid) (Arabidopsis thaliana)
binder,measurement,setting,value
"HAT1 (pGADT7 fusion, yeast two-hybrid) (protein, UniProt P46600 1-282) MMMGKEDLGLSLSLGFAQNHPLQLNLKPTSSPMSNLQMFPWNQTLVSSSDQQKQQFLRKIDVNSLPTTVDLEEETGVSSPNSTISSTVSGKRRSTEREGTSGGGCGDDLDITLDRSSSRGTSDEEEDYGGETCRKKLRLSKDQSAVLEDTFKEHNTLNPKQKLALAKKLGLTARQVEVWFQNRRARTKLKQTEVDCEYLKRCVEKLTEENRRLEKEAAELRALKLSPRLYGQMSPPTTLLMCPSCERVAGPSSSNHNQRSVSLSPWLQMAHGSTFDVMRPRS",binding,[1],no binding
same,binding,[2],binds
same,binding,[3],binds
